± gives the standard deviation of the averaged measurements. The full ranking holds about 33,000 sequences; the median of “E-score (dimensionless, -0.5 to 0.5)” is about -0.046, and the highest 2% start at about 0.36. This is one part of the list.
Test system: T1, SpTbr T-box DNA-binding domain (GST fusion)
T1 sequence: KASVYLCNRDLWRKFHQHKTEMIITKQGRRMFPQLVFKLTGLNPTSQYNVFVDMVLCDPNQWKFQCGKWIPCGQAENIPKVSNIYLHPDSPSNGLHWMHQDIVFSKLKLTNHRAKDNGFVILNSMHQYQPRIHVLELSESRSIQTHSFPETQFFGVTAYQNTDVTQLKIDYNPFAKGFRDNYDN
Experiment: PBM E-score of 8-mer (E-score (dimensionless, -0.5 to 0.5)); Tbr is Tbrain of the sea star Patiria miniata (Pm) or the sea urchin Strongylocentrotus purpuratus (Sp); higher = stronger binding preference; most listed sequences are background and not binding sites
Conditions: the construct has about 5 more residues each side
Procedure: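 Universal protein-binding microarray (Agilent AMADID 016060, 60-bp probes with a 35-bp variable region) incubated with 200 nM GST-fused Strongylocentrotus purpuratus Tbr T-box DNA-binding domain (residues 362-554) in PBS pH 7.5. Scored for every ungapped 8-mer (given with its reverse complement) as E-score (range -0.5 to 0.5; >0.45 counts as bound) and Z-score of median probe intensity. Two replicate arrays (datasets 1 and 2).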
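Also: protein at 200 nM in PBS on universal double-stranded arrays.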

| Sequence | PBM E-score of 8-mer |
| --- | --- |
| AGAGCCCT | -0.185 ± 0.0023 |
| AACGCGCT | 0.22 ± 0.035 |
| CCACTGGC | 0.0913 ± 0.048 |
| GCAAATTA | -0.0268 ± 0.038 |
| AAGTTGCC | 0.197 ± 0.029 |
| ATGGCCCG | -0.221 ± 0.03 |
| AAGGCTCA | -0.248 ± 0.053 |
| CATTCGTA | -0.0369 ± 0.038 |
| AGGGGTCA | -0.0738 ± 0.078 |
| TACTCTAA | -0.249 ± 0.012 |
| ACATCATG | -0.106 ± 0.054 |
| GCTGACAC | 0.386 ± 0.039 |
| AGCGGGGG | -0.0618 ± 0.1 |
| CAGGCGAA | -0.0334 ± 0.076 |
| AATAGTAA | -0.242 ± 0.059 |
| ATGTTGGC | 0.0194 ± 0.013 |
| AAGTGACC | 0.233 ± 0.041 |
| CGAAGGCA | -0.0251 ± 0.047 |
| CCTTTGAC | -0.00585 ± 0.066 |
| CTCTTGGC | 0.0277 ± 0.019 |
| CGCGTCAC | 0.277 ± 0.039 |
| ATTTCAGG | -0.0292 ± 0.024 |
| GCCATTGA | 0.0175 ± 0.076 |
| CCAACTTA | -0.0979 ± 0.16 |
| GAAGCTGC | 0.122 ± 0.036 |

| Sequence | PBM E-score of 8-mer |
| --- | --- |
| AAGACTAA | -0.0658 ± 0.041 |
| ATGTCACA | 0.3087 ± 0.00058 |
| TGATGGAA | 0.117 ± 0.0081 |
| AATGTGAG | 0.225 ± 0.027 |
| GTTTAAAA | -0.163 ± 0.092 |
| AGAATGCG | 0.0261 ± 0.086 |
| AGCAGCCG | -0.124 ± 0.028 |
| TCAGCCAA | -0.0806 ± 0.037 |
| ATCTCGCA | 0.247 ± 0.024 |
| CGACTGCC | 0.0376 ± 0.032 |
| ATTAAACG | -0.122 ± 0.018 |
| ACAGCTCG | 0.152 ± 0.048 |
| GACCTTCA | -0.0627 ± 0.081 |
| CTAGTAAA | -0.148 ± 0.0045 |
| ACAGGCGA | 0.195 ± 0.051 |
| CTATCGTC | 0.0527 ± 0.092 |
| CTGGCTTC | -0.226 ± 0.022 |
| ACGAAAAC | 0.105 ± 0.023 |
| AAAGTCGT | 0.133 ± 0.015 |
| AAGCGGCT | -0.139 ± 0.032 |
| ATCCCAAC | -0.117 ± 0.15 |
| CAAAACTG | 0.116 ± 0.019 |
| AAGGACGT | -0.154 ± 0.034 |
| TATGGGGA | -0.182 ± 0.014 |
| ACATGCCG | -0.13 ± 0.024 |

| Sequence | PBM E-score of 8-mer |
| --- | --- |
| TAGCGCTA | 0.222 ± 0.056 |
| ATCGGTAC | -0.259 ± 0.038 |
| ATCATAGA | -0.173 ± 0.071 |
| CTGACGGA | 0.138 ± 0.075 |
| ACACCAAG | 0.311 ± 0.018 |
| AATCGAGC | -0.0815 ± 0.0076 |
| AACTTCTG | 0.0311 ± 0.05 |
| CCGCGTAC | -0.1114 ± 0.00088 |
| ACCGACGC | 0.105 ± 0.058 |
| CCAAGGGA | 0.0745 ± 0.0013 |
| CACGGCGA | 0.0428 ± 0.086 |
| CCTTCACA | 0.404 ± 0.0071 |
| ACTACTCC | -0.139 ± 0.024 |
| GATGTATA | -0.132 ± 0.071 |
| TCCTGGAA | -0.327 ± 0.059 |
| CCCACACC | 0.438 ± 0.033 |
| GGTGTTCA | 0.262 ± 0.009 |
| AGCAGCAT | -0.138 ± 0.066 |
| CGAGCTGA | 0.0161 ± 0.0018 |
| AGGTGACC | 0.151 ± 0.0043 |
| GTACCTAC | -0.161 ± 0.04 |
| ACCTGTTA | 0.325 ± 0.019 |
| CTCACCGA | 0.0544 ± 0.017 |
| ACTTTTGC | 0.121 ± 0.0038 |
| CTAGCGTA | -0.0609 ± 0.029 |

| Sequence | PBM E-score of 8-mer |
| --- | --- |
| AGACTAGC | -0.17123 ± 0.00013 |
| AAGTTGCT | 0.155 ± 0.0092 |
| ACAGGACA | 0.0815 ± 0.039 |
| CGCACTGA | 0.0995 ± 0.013 |
| GCTAAGGA | -0.0203 ± 0.016 |
| ACCCGCCG | 0.034 ± 0.012 |
| GGACACTA | -0.0848 ± 0.036 |
| ACACCCAA | 0.3623 ± 0.0032 |
| AGTATCGA | 0.039 ± 0.027 |
| AGGCATTG | -0.17 ± 0.042 |
| CGACAGCG | 0.113 ± 0.052 |
| TACGAATA | -0.128 ± 0.063 |
| AAGAAAAC | -0.105 ± 0.067 |
| ATATCGAA | -0.151 ± 0.014 |
| ATACGGAC | -0.151 ± 0.035 |
| ACGATCTC | 0.0369 ± 0.034 |
| AAGGTTCT | -0.0539 ± 0.023 |
| CCTGGTTC | -0.0505 ± 0.015 |
| CTATGTCC | -0.223 ± 0.027 |
| ACCCACAG | 0.057 ± 0.09 |
| CGCGAATA | 0.297 ± 0.012 |
| CAGAAATC | -0.117 ± 0.0073 |
| CAGACGTC | -0.2081 ± 0.00061 |
| CCGTGAAC | 0.353 ± 0.0099 |
| CGATTTTA | -0.151 ± 0.033 |

| Sequence | PBM E-score of 8-mer |
| --- | --- |
| CAGCGGGA | -0.0421 ± 0.045 |
| AGAAAATC | 0.00758 ± 0.1 |
| ACGATTTC | 0.14 ± 0.037 |
| AGATCGAT | -0.274 ± 0.13 |
| ACACACCG | 0.224 ± 0.013 |
| AGTCTCTG | -0.195 ± 0.048 |
| ATCAAGTC | 0.0467 ± 0.085 |
| GCCGCAAA | -0.0435 ± 0.092 |
| ACCCTAAA | -0.153 ± 0.018 |
| TATTAGAA | -0.1988 ± 0.00061 |
| AGGAAAAA | -0.237 ± 0.011 |
| CCCATGGG | -0.205 ± 0.062 |
| GTATACTA | -0.0786 ± 0.044 |
| ACCATGGG | -0.023 ± 0.087 |
| GCAGGTAC | -0.1938 ± 0.00057 |
| CGTAATGC | -0.14 ± 0.048 |
| AATACCTA | -0.127 ± 0.037 |
| TCAAGAAA | -0.183 ± 0.067 |
| AGAAGCAT | -0.341 ± 0.01 |
| ATGCTACC | -0.231 ± 0.11 |
| CGCTACAG | -0.00134 ± 0.096 |
| AAAGCGAT | -0.133 ± 0.046 |
| CAAGACGC | 0.0343 ± 0.08 |
| GGAAAAAA | -0.114 ± 0.12 |
| ATTCGATA | -0.00711 ± 0.01 |

| Sequence | PBM E-score of 8-mer |
| --- | --- |
| GAGAAAAA | 0.047 ± 0.018 |
| CACCAAGG | 0.156 ± 0.014 |
| TCCGGTAA | -0.127 ± 0.062 |
| GCCGGAAC | -0.128 ± 0.053 |
| ACATTTCA | 0.137 ± 0.032 |
| ATAGTTCA | -0.041 ± 0.015 |
| ATAATGCA | -0.0964 ± 0.06 |
| AATCCCGA | -0.177 ± 0.0089 |
| ACACCCGG | 0.317 ± 0.042 |
| AGTTGCAT | -0.1 ± 0.018 |
| ACAGCAAA | -0.0361 ± 0.094 |
| CGTGGAAA | -0.057 ± 0.079 |
| AGAGCATA | -0.235 ± 0.031 |
| CGCAGCAC | 0.0169 ± 0.017 |
| AATATGGG | -0.0594 ± 0.012 |
| CTTGCTCA | 0.0349 ± 0.022 |
| ACATACAT | -0.111 ± 0.03 |
| ATTCTTGC | -0.271 ± 0.059 |
| GCTCGGAC | -0.231 ± 0.022 |
| CGTCTGCC | -0.0786 ± 0.027 |
| GTCCACAC | 0.385 ± 0.0075 |
| GATATATC | 0.0937 ± 0.085 |
| ACTGAGTA | -0.102 ± 0.034 |
| CTGGAATA | -0.106 ± 0.026 |
| AAGACCAG | -0.00745 ± 0.01 |

| Sequence | PBM E-score of 8-mer |
| --- | --- |
| AACTACGC | 0.0222 ± 0.02 |
| CGTTTAGA | -0.183 ± 0.039 |
| GAGCGCCA | 0.0875 ± 0.013 |
| GTAGCAAC | 0.154 ± 0.041 |
| CACGTTGG | 0.18 ± 0.019 |
| ACGGCGCG | 0.219 ± 0.072 |
| ACTCCATA | 0.00838 ± 0.046 |
| CGTCGACC | -0.0569 ± 0.086 |
| ATAGCCGC | 0.0201 ± 0.052 |
| CACCGCAG | 0.027 ± 0.061 |
| AACAGGCA | -0.117 ± 0.014 |
| GTCACCCA | 0.203 ± 0.0083 |
| CTTACACA | 0.276 ± 0.035 |
| AGTAAAGA | -0.0335 ± 0.12 |
| AATTTATC | -0.0106 ± 0.13 |
| ACCTGGAC | 0.00522 ± 0.073 |
| CTAGATAC | -0.23 ± 0.056 |
| AATCGGAG | -0.187 ± 0.031 |
| CAAGACAA | -0.0526 ± 0.028 |
| AAAACTAT | -0.0179 ± 0.042 |
| TGCTCCCA | -0.0378 ± 0.021 |
| GGGTGCCA | 0.3739 ± 0.003 |

Reference: the supplement of paper PMC4166925
